This note sets out measurements from article PMC4336329 (PLoS ONE, 2015).

The whole screen tested about 310,000 compounds, of which about 14,000 (4.5%) showed an effect of 50% or more. The effect is printed as a negative number. The list shows a part of the results.
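Note: peak tail current of the secondary pulse compared with the same well before compound.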

The target in this assay is human ether-à-go-go-related gene (hERG) potassium channel (human, UniProt Q12809). The assay can be described thus: primary screen, population patch clamp on CHO cells stably expressing hERG.
Chain of human ether-à-go-go-related gene (hERG) potassium channel (Q12809 whole entry, looked up): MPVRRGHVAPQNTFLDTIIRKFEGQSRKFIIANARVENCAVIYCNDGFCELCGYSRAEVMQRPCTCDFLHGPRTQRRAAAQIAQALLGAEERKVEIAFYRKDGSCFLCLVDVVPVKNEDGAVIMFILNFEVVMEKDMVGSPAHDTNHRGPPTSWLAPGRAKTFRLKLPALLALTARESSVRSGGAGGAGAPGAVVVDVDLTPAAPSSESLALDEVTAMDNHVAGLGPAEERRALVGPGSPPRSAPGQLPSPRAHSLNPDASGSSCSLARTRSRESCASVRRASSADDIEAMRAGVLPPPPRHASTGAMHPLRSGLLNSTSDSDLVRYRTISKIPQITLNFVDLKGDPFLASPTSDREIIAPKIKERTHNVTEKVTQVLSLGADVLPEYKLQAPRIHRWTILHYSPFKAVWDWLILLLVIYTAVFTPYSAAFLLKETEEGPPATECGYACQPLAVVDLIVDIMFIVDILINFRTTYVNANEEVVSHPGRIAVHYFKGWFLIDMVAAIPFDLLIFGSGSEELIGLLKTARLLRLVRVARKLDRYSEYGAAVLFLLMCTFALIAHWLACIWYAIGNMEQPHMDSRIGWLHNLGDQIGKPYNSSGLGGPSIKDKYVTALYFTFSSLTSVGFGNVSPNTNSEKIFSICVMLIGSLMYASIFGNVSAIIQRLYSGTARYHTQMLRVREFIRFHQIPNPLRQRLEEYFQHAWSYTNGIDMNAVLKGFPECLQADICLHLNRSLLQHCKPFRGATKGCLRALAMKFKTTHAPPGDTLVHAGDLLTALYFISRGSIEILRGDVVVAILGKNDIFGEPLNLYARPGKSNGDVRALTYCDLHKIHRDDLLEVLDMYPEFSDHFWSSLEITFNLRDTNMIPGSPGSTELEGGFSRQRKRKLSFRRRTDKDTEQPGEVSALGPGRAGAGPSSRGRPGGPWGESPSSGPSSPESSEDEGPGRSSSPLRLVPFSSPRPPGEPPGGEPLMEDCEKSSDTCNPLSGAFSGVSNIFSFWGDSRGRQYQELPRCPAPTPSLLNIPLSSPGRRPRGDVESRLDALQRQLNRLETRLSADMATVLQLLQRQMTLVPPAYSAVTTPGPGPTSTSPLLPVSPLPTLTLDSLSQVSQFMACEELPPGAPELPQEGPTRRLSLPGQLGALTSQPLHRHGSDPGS
Take `CCOc1ccc(CNC2CCCc3ccccc32)cc1.O=C(O)C(=O)O` (stereo not shown): the “hERG current change (%, negative = inhibition) at 10uM” value is reported as -68.1%. `O=C(NNC(=O)c1cc(OCC(F)(F)F)ccc1OCC(F)(F)F)c1cccc(C(F)(F)F)c1`: the “hERG current change (%, negative = inhibition) at 10uM” value is listed as -17.4%. In the case of `Cn1cc(C(=O)Cc2ccccc2)c2ccccc21`, the “hERG current change (%, negative = inhibition) at 10uM” value is given as -6.56%. In the case of `COc1ccccc1NC(=O)CSc1nnc(-c2ccc(C)cc2)o1`, the “hERG current change (%, negative = inhibition) at 10uM” value amounted to 0.209%. Regarding `Cc1ccc(Cn2cccc(NC(=O)c3ccco3)c2=O)cc1`, the “hERG current change (%, negative = inhibition) at 10uM” value turned out to be 0.595%. Regarding `CC1CCc2c(sc3nc4n(c(=O)c23)CCS4)C1` (stereo not shown), the “hERG current change (%, negative = inhibition) at 10uM” value is given as -10.3%. For the compound `CN1CCN(C(=O)c2cc(COc3ccccc3)on2)[C@@H](c2ccccc2)C1`, the “hERG current change (%, negative = inhibition) at 10uM” value is recorded as -8.4%.

Take `CC1(O)C[C@]2(C)N(O)C3CCCC[C@@H]3N2O1` (stereo partly shown): the “hERG current change (%, negative = inhibition) at 10uM” value came to 6.2%. For the compound `O=c1[nH]snc1-c1c(Cl)cccc1Cl`, the “hERG current change (%, negative = inhibition) at 10uM” value is 20%.

Regarding `COc1ccc(CNC(=O)COC(=O)/C=C/c2ccco2)cc1`, the “hERG current change (%, negative = inhibition) at 10uM” value is given as -10.5%. Turning to `c1cn(CC2(Cn3ccnc3)COC2)cn1`, the “hERG current change (%, negative = inhibition) at 10uM” value was 2.07%. For `CCN(CC)S(=O)(=O)c1cc(NC(=O)Cc2ccsc2)ccc1C`, the “hERG current change (%, negative = inhibition) at 10uM” value is on record as -14%.

As to `CC(C)[C@H]1C(=O)N2CCC[C@H]2[C@]2(O)O[C@](NC(=O)[C@@H]3C=C4c5cccc6[nH]cc(c56)C[C@H]4N(C)C3)(C(C)C)C(=O)N12`, the “hERG current change (%, negative = inhibition) at 10uM” value is given as -22.7%. `COC(=O)c1ccc(NC(=O)CC2C(=O)N(c3ccc(C)cc3)C(=O)N2CC(C)C)cc1` (stereo not shown): the “hERG current change (%, negative = inhibition) at 10uM” value is on record as -21.1%. For `CC(c1ccc(F)cc1)n1c(-c2ccc3ccccc3n2)n[nH]c1=S` (stereo not shown), the “hERG current change (%, negative = inhibition) at 10uM” value turned out to be 18.1%.

Turning to `COc1cccc([C@@H]2CC=C(C(=O)O)[C@H](c3ccc(F)cc3)N2S(=O)(=O)c2ccc(C)cc2)c1`, the “hERG current change (%, negative = inhibition) at 10uM” value was found to be 22.1%. Consider `c1cn(CCCNC2CCCCCCC2)cn1`, for which the “hERG current change (%, negative = inhibition) at 10uM” value turned out to be 8.98%. Then `COc1ccc2c(c1)c(=O)oc1cc(O)ccc12`, with 3.99%; and `Cc1cccc(N2CCN(S(=O)(=O)c3c(C)noc3/C=C/N(C)C)CC2)c1C`, with 5.94%; and `CNCCCC1c2ccccc2C=Cc2ccccc21.Cl`, with 13.2%. For `COc1ccc(CCNC(=O)CCS(=O)(=O)c2ccc3c(c2)NC(=O)C(C)S3)cc1OC` (stereo not shown), the “hERG current change (%, negative = inhibition) at 10uM” value worked out at 11.4%. For `Fc1ccccc1-c1nc(-c2cnccc2C(F)(F)F)no1` the value was 10.1%; for `OC(CNCc1ccccc1Cl)C(F)(F)F` (stereo not shown), 12.2%; for `Cc1ccc(/C=C2/C(=O)NC(=O)N(CC3CCCO3)C2=O)s1` (stereo not shown), -1.61%. For `COc1ccc(N(C(=O)c2snc(C(N)=O)c2N)C(C(=O)NCC2CCCO2)c2ccc(C)o2)cc1OC` (stereo not shown) the value was 23.6%. For `COc1ccccc1N1CCN(C(=O)C2CCCN(S(=O)(=O)c3ccc(C)cc3)C2)CC1` (stereo not shown), the “hERG current change (%, negative = inhibition) at 10uM” value is listed as -38.3%. Consider `COc1ccccc1CN(C)C(=O)CN1C(=O)c2ccccc2C1=O`, for which the “hERG current change (%, negative = inhibition) at 10uM” value came out at 15.6%.

In the case of `CCc1sc(C(=O)Nc2cccnc2)cc1Br`, the “hERG current change (%, negative = inhibition) at 10uM” value is recorded as 5.88%. Then `CCOc1ccc(/C(O)=C2\C(=O)C(=O)N(CCN(C)C)C2c2cccc(OC)c2OC)cc1Cl` (stereo not shown), with -0.687%; and `Cn1c(=O)[nH]c(=O)c2c1nc(CN1CCN(c3ccc(F)cc3)CC1)n2CCCc1ccccc1`, with -46.8%; and `COC(=O)c1sc(NC(=O)COc2cccc(C)c2)nc1C`, with 7.05%. Then `O=C(Cc1cn2ccsc2n1)Nc1ccccn1`, with 11.7%; and `COC(=O)Cn1cc(/C=C(/C#N)C(=O)N2CCOCC2)c2ccccc21`, with 6.47%; and `C[NH+](C)CC(C)(C)CNS(=O)(=O)c1ccc(Cl)c(Cl)c1.[Cl-]`, with 4.29%. Consider `OCC(Cc1ccc2c(c1)OCO2)C(CO)Cc1ccc2c(c1)OCO2` (stereo not shown), for which the “hERG current change (%, negative = inhibition) at 10uM” value is recorded as 7.84%. Take `O=C(N/N=C/c1c[nH]c2ccccc12)c1cccc(Cl)c1`: the “hERG current change (%, negative = inhibition) at 10uM” value amounted to 11.7%. With `Cc1ccc(Nc2nc(N)nc(CN3CCN(C(=O)c4ccco4)CC3)n2)cc1Cl`, the “hERG current change (%, negative = inhibition) at 10uM” value is -74%. Regarding `Nc1c(Cl)ncnc1NCc1ccccc1`, the “hERG current change (%, negative = inhibition) at 10uM” value is given as 7.06%. With `O=C(NCc1ccccc1)c1ccc(S(=O)(=O)C(F)F)cc1`, the “hERG current change (%, negative = inhibition) at 10uM” value is recorded as -21.9%. For the compound `COc1ccc2oc(C(=O)OCC(=O)NC(=O)c3ccccc3)c(C)c2c1`, the “hERG current change (%, negative = inhibition) at 10uM” value is listed as 16.6%.

For the compound `CN(C)/N=C/c1ccc([N+](=O)[O-])cc1[N+](=O)[O-]`, the “hERG current change (%, negative = inhibition) at 10uM” value turned out to be 8.46%. For `CCSc1nnc(NC(=O)CCc2ccccc2)s1`, the “hERG current change (%, negative = inhibition) at 10uM” value is on record as 10.7%. For the compound `N#Cc1c(/N=C/c2ccco2)sc2c1CCC2`, the “hERG current change (%, negative = inhibition) at 10uM” value is -1.35%.
